The other results are listed elsewhere or left out.

B1: PhoQ; a variant is named by its letters at X, in order, P23837 (parent)
chain: MKKLLRLFFPLSLRVRFLLATAAVVLVLSLAYGMVALIGYSVSFDKTTFRLLRGESNLFYTLAKWENNKLHVELPENIDKQSPTMTLIYDENGQLLWAQRDVPWLMKMIQPDWLKSNGFHEIEADVNDTSLLLSGDHSIQQQLQEVREDDDDAEMTHSVAVNVYPATSRMPKLTIVVVDTIPVELKSSYMVWSWFIYVLSANLLLVIPLLWVAAWWSLRPIEALAKEVRELEEHNRELLNPATTRELTSLVRNLNRLLKSERERYDKYRTTLTDLTHSLKTPLXXLQXXLRSLRSEKMSVSDAEPVMLEQISRISQQIGYYLHRASMRGGTLLSRELHPVAPLLDNLTSALNKVYQRKGVNISLDISPEISFVGEQNDFVEVMGNVLDNACKYCLEFVEISARQTDEHLYIVVEDDGPGIPLSKREVIFDRGQRVDTLRPGQGVGLAVAREITEQYEGKIVAGESMLGGARMEVIFGRQHSAPKDE

Variants of B1 are the subject of the assay. Nature of the assay: enrichment ratio after two sorts for PhoP signalling (ratio (wild type AVST 3.29)); higher = more functional. Particulars: with PhoP (E. coli).
Regarding TVSI, the enrichment ratio was 17.4.

As for NTSD, the enrichment ratio is ≤ 0.25.

WAVD: the enrichment ratio is ≤ 0.25.

ALAG: the enrichment ratio stood at 1.23.

With ELAM, the enrichment ratio was ≤ 0.25.

With DLAS, the enrichment ratio was ≤ 0.25.

On to NSDC, for which the enrichment ratio was ≤ 0.25.

HQYS: the enrichment ratio was ≤ 0.25.

As for VMCH, the enrichment ratio was ≤ 0.25.

For SIHT, the enrichment ratio was ≤ 0.25.

MVQF: the enrichment ratio is ≤ 0.25.

In the case of QFDW, the enrichment ratio was ≤ 0.25.

As to PMKC, the enrichment ratio is ≤ 0.25.

DHMQ: the enrichment ratio is ≤ 0.25.

As to YQAV, the enrichment ratio was ≤ 0.25.

Regarding PTTR, the enrichment ratio is ≤ 0.25.

TQAQ: the enrichment ratio came to 3.78.

With GKVM, the enrichment ratio was ≤ 0.25.

With YWFV, the enrichment ratio is ≤ 0.25.

Consider PNNT, for which the enrichment ratio is ≤ 0.25.

Regarding HGWW, the enrichment ratio is ≤ 0.25.

Turning to EQLN, the enrichment ratio was ≤ 0.25.

NGFK: the enrichment ratio was ≤ 0.25.

For the variant YPIW, the enrichment ratio was ≤ 0.25.

As for HCWL, the enrichment ratio was ≤ 0.25.

Regarding AAWI, the enrichment ratio is ≤ 0.25.

With WCPQ, the enrichment ratio was ≤ 0.25.

On to NGGM, for which the enrichment ratio is ≤ 0.25.

Consider QAMF, for which the enrichment ratio was ≤ 0.25.

With KIPP, the enrichment ratio was ≤ 0.25.

Take IGLC: the enrichment ratio worked out at 0.963.

LNHT: the enrichment ratio is ≤ 0.25.

As to SIVF, the enrichment ratio is ≤ 0.25.

With QAHC, the enrichment ratio was ≤ 0.25.

For RGPG, the enrichment ratio was ≤ 0.25.

Regarding VPCT, the enrichment ratio is ≤ 0.25.

As to NCWK, the enrichment ratio is ≤ 0.25.

Turning to GPTG, the enrichment ratio is ≤ 0.25.

On to IPRS, for which the enrichment ratio is ≤ 0.25.

For RGQG, the enrichment ratio was ≤ 0.25.

Consider HHAF, for which the enrichment ratio is ≤ 0.25.

Regarding LEVN, the enrichment ratio is ≤ 0.25.

As to WECR, the enrichment ratio is ≤ 0.25.

On to LFYN, for which the enrichment ratio was ≤ 0.25.

As for KYYH, the enrichment ratio is ≤ 0.25.

Regarding KPQF, the enrichment ratio is ≤ 0.25.

Turning to DTCE, the enrichment ratio was ≤ 0.25.

As to NENP, the enrichment ratio was ≤ 0.25.

Turning to KMKS, the enrichment ratio was ≤ 0.25.

For KSIM, the enrichment ratio is ≤ 0.25.

Regarding DIND, the enrichment ratio was ≤ 0.25.

In the case of RFAM, the enrichment ratio is ≤ 0.25.

Take NYHI: the enrichment ratio is ≤ 0.25.

For the variant AWPM, the enrichment ratio was ≤ 0.25.

With VAEQ, the enrichment ratio is ≤ 0.25.

Take NCKS: the enrichment ratio is ≤ 0.25.

As for PSNA, the enrichment ratio is ≤ 0.25.

With KPSK, the enrichment ratio was ≤ 0.25.

Turning to AGDR, the enrichment ratio is ≤ 0.25.

For IPHQ, the enrichment ratio is ≤ 0.25.

As for LHAI, the enrichment ratio is ≤ 0.25.

As to ARAC, the enrichment ratio was ≤ 0.25.

Regarding PNCV, the enrichment ratio was ≤ 0.25.

Consider FCMS, for which the enrichment ratio was ≤ 0.25.

For WLHW, the enrichment ratio is ≤ 0.25.

In the case of CQNY, the enrichment ratio amounted to 12.1.

For the variant IWWM, the enrichment ratio was ≤ 0.25.

As to GYYW, the enrichment ratio was ≤ 0.25.

Turning to HRWH, the enrichment ratio was ≤ 0.25.

On to CCSC, for which the enrichment ratio is ≤ 0.25.

In the case of ISYM, the enrichment ratio was ≤ 0.25.

On to HQYY, for which the enrichment ratio is ≤ 0.25.

As to YCIQ, the enrichment ratio was determined as 0.253.

As for IVFK, the enrichment ratio was ≤ 0.25.

On to YGFW, for which the enrichment ratio is ≤ 0.25.

Consider IDTV, for which the enrichment ratio was ≤ 0.25.

Turning to QTHT, the enrichment ratio was ≤ 0.25.

Consider NTTC, for which the enrichment ratio was ≤ 0.25.

Take QLRA: the enrichment ratio is ≤ 0.25.

As to EDNF, the enrichment ratio is ≤ 0.25.

Consider GEEL, for which the enrichment ratio was ≤ 0.25.

With NWWR, the enrichment ratio was ≤ 0.25.

For NVWQ, the enrichment ratio was ≤ 0.25.

Turning to HKKG, the enrichment ratio was ≤ 0.25.

As to YFIL, the enrichment ratio is ≤ 0.25.

As to TYCV, the enrichment ratio came out at 0.664.

Consider WQEI, for which the enrichment ratio was ≤ 0.25.

As for HRHS, the enrichment ratio was ≤ 0.25.

For the variant TEIR, the enrichment ratio was ≤ 0.25.

In the case of PPFN, the enrichment ratio was ≤ 0.25.

In the case of AWNQ, the enrichment ratio is ≤ 0.25.

FEKP: the enrichment ratio was ≤ 0.25.

Turning to IKKD, the enrichment ratio was ≤ 0.25.

On to GQRA, for which the enrichment ratio was ≤ 0.25.

DRTW: the enrichment ratio is ≤ 0.25.

Regarding QYNG, the enrichment ratio is ≤ 0.25.

Regarding HDRF, the enrichment ratio was ≤ 0.25.

With EQVT, the enrichment ratio is ≤ 0.25.

On to VVCS, for which the enrichment ratio was ≤ 0.25.

Turning to HRPE, the enrichment ratio is ≤ 0.25.

With KFGG, the enrichment ratio was ≤ 0.25.

Regarding RYYV, the enrichment ratio was ≤ 0.25.

Take RGDA: the enrichment ratio was ≤ 0.25.

As for SLSL, the enrichment ratio was 10.7.

For ILAC, the enrichment ratio is ≤ 0.25.

Consider FLVA, for which the enrichment ratio is ≤ 0.25.

For YGMM, the enrichment ratio is ≤ 0.25.

In the case of SLWK, the enrichment ratio is ≤ 0.25.

PYCM: the enrichment ratio was ≤ 0.25.

Regarding RWPH, the enrichment ratio is ≤ 0.25.

In the case of GGRT, the enrichment ratio is ≤ 0.25.

Take PGTD: the enrichment ratio was ≤ 0.25.

For the variant AESS, the enrichment ratio turned out to be 16.3.

In the case of NGRK, the enrichment ratio was ≤ 0.25.

For the variant QPML, the enrichment ratio was ≤ 0.25.

For the variant NRSE, the enrichment ratio is ≤ 0.25.

For PLEC, the enrichment ratio was ≤ 0.25.

On to ARWN, for which the enrichment ratio is ≤ 0.25.

Regarding IKQN, the enrichment ratio is ≤ 0.25.

Regarding RPFR, the enrichment ratio was ≤ 0.25.

Turning to QMIK, the enrichment ratio was ≤ 0.25.

For NVSE, the enrichment ratio is ≤ 0.25.

TMKY: the enrichment ratio was ≤ 0.25.

For MHDV, the enrichment ratio is 0.467.

For DHPN, the enrichment ratio is ≤ 0.25.

Take HHFH: the enrichment ratio was ≤ 0.25.

GKWY: the enrichment ratio was ≤ 0.25.

On to ICYH, for which the enrichment ratio was ≤ 0.25.

Regarding KPDW, the enrichment ratio is ≤ 0.25.

As for GRRR, the enrichment ratio was ≤ 0.25.

As for WLMY, the enrichment ratio is ≤ 0.25.

For the variant RKGS, the enrichment ratio is ≤ 0.25.

As for DVGY, the enrichment ratio is ≤ 0.25.

As for PNRV, the enrichment ratio was ≤ 0.25.

In the case of IKDV, the enrichment ratio is ≤ 0.25.

With IGLY, the enrichment ratio is ≤ 0.25.

For the variant DIYE, the enrichment ratio is ≤ 0.25.

Regarding IMRM, the enrichment ratio was ≤ 0.25.

For the variant VTNL, the enrichment ratio is ≤ 0.25.

In the case of NPCA, the enrichment ratio is ≤ 0.25.

For the variant WLMG, the enrichment ratio was ≤ 0.25.

Take ASLQ: the enrichment ratio worked out at 11.8.

Take HKKV: the enrichment ratio stood at 2.09.

TWEF: the enrichment ratio is ≤ 0.25.

Consider RRYN, for which the enrichment ratio is ≤ 0.25.

Turning to YYMS, the enrichment ratio is ≤ 0.25.

With TTSL, the enrichment ratio turned out to be 17.6.

Consider HDNG, for which the enrichment ratio was ≤ 0.25.

Consider MCHV, for which the enrichment ratio is ≤ 0.25.

On to KNVT, for which the enrichment ratio is ≤ 0.25.

As for VVSF, the enrichment ratio is ≤ 0.25.

Regarding ERHV, the enrichment ratio is ≤ 0.25.

As to RQNK, the enrichment ratio was ≤ 0.25.
